Four molecules from paper PMC12480466 can be followed below.

Sequences of proteins named here, by UniProt entry; tags and fusion partners are left off.
UniProt Q9BV73: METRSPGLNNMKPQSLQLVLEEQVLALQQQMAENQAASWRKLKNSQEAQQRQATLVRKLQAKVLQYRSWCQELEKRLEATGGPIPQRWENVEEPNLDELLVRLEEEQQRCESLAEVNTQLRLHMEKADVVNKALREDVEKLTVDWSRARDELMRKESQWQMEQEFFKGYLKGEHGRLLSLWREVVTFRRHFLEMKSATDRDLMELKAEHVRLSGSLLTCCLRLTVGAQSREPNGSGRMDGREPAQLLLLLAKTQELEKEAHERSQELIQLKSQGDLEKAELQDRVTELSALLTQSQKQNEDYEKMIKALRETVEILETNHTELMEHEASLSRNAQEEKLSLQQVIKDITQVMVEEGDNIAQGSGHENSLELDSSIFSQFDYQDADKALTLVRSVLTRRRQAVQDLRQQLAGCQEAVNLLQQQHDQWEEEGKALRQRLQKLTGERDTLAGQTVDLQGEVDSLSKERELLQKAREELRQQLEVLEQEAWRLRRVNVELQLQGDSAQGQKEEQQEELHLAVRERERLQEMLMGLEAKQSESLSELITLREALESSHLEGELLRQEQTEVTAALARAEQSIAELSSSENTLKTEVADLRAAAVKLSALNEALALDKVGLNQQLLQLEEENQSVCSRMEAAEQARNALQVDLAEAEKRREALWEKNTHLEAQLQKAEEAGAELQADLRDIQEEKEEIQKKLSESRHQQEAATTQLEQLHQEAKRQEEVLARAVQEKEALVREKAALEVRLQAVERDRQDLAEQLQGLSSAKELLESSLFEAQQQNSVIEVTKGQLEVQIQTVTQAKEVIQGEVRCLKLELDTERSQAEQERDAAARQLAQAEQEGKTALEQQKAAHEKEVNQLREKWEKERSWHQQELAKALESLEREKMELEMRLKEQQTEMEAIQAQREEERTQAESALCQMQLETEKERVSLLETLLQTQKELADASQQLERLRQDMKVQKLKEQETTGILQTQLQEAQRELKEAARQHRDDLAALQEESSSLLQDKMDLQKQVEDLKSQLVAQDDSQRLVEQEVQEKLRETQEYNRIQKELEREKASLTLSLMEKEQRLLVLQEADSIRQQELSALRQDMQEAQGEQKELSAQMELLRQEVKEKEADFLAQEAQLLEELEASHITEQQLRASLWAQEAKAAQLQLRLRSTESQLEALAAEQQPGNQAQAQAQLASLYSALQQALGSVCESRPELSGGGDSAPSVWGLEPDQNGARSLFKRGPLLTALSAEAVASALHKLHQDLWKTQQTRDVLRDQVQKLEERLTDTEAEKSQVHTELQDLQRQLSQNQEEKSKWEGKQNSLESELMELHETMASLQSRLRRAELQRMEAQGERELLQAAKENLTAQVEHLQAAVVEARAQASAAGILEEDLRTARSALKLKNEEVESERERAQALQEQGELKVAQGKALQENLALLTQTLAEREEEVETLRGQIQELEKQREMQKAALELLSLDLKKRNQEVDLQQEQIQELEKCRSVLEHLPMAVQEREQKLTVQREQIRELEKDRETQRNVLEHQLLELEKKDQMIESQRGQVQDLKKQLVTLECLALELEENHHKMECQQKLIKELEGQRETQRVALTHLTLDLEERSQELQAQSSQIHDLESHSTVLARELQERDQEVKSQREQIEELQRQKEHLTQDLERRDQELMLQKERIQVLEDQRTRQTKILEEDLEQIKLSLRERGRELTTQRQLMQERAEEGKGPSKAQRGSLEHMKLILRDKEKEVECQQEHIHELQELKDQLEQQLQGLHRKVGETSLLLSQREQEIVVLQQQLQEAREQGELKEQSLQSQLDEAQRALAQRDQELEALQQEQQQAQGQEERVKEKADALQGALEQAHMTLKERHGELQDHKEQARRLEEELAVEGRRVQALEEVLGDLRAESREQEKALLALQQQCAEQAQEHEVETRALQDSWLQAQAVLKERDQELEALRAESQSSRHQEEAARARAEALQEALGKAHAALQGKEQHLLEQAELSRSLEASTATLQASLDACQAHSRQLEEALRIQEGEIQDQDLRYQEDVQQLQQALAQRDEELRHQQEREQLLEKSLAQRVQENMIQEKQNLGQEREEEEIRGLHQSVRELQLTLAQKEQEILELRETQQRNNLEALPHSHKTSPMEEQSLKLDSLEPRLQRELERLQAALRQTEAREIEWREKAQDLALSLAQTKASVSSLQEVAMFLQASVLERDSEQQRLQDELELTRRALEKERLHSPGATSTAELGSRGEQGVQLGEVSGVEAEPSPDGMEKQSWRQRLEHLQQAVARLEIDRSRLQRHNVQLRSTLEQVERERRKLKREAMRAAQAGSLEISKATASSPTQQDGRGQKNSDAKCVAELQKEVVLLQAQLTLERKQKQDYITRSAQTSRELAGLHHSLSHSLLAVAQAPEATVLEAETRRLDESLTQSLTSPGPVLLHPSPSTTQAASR
UniProt P53350: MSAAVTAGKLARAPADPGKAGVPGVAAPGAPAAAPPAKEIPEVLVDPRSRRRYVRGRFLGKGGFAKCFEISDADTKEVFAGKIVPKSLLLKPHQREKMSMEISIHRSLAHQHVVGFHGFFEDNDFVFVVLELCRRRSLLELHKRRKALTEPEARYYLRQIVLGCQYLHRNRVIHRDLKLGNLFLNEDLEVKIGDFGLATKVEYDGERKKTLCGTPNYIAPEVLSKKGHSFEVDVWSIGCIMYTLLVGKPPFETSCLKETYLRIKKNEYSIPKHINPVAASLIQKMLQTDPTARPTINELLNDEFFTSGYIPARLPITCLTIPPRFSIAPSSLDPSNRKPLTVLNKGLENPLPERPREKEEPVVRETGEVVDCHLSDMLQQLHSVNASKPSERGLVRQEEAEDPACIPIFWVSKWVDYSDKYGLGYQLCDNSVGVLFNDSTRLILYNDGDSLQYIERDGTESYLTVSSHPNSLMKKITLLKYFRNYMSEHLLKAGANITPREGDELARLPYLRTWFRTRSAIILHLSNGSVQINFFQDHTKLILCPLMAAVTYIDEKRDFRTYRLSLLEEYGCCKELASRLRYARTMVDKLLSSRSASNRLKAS

Changes are numbered by the printed parent chain. These are yes or no findings as the source states them, for the method shown. In cells and extracts the contact can be indirect. Some binding calls cover weakened binding; strength is not graded here. Tags and fused reporters may be left off the sequences shown.

What all share (test): co-IP; lysates of HEK293T cells overexpressing both tagged proteins; lysis buffer 150 mM NaCl, 50 mM HEPES, 1 mM MgCl2, 1 mM EGTA, 0.5% Triton X-100, pH 7.4; antibodies and protein G-Sepharose, 4 °C, 4 h or overnight; immunoblotting
A general note: In western blotting, separated proteins are transferred to a membrane and probed.

In experiment [1] the target is C-Nap1-GFP (human) (UniProt Q9BV73).
Experiment [2] addresses T1, 3×FLAG-NEK2 (human) (UniProt P51955).
T1 sequence: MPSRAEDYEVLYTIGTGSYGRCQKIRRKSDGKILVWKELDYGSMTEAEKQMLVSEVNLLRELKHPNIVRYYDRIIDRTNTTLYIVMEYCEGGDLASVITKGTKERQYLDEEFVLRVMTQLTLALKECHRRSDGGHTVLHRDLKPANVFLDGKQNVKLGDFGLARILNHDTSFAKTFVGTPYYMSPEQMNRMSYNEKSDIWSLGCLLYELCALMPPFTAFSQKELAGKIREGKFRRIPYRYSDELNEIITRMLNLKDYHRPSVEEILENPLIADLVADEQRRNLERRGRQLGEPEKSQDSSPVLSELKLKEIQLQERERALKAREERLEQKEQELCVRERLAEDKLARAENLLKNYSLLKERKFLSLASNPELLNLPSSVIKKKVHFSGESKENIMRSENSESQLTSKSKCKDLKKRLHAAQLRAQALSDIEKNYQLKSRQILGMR

In experiment [3] the target is GFP-PLK1 (FL) (human) (UniProt P53350).

B1: 3×FLAG-TUFT1-2A (protein, UniProt Q9NNX1-1 1-390)
chain: MNGTRNWCTLVDVHPEDQAAGSVDILRLALQGELTGDELEHIAQKAGRKTYAMVSSHSAGHSLASELVEAHDGHEEIIKVYLKGRSGDKMIHEKNINQLKSEVQYIQEARNCLQKLREDISSKLDRNLGDSLHRQEIQVVLEKPNGFSQSPTALYSSPPEVDTCINEDVESLRKTVQDLLAKLQEAKRQHQSDCVAFEVTLSRYQREAEQSNVALQREEDRVEQKEAEVGELQRRLLGMETEHQALLAKVREGEVALEELRSNNADCQAEREKAATLEKEVAGLREKIHHLDDMLKSQQRKVRQMIEQLQNSKAVIQSKDATIQELKEKIAYLEAENLEMHDRMEHLIEKQISHGNFSTQARAKTENPGSIRISKPPSPKPMPVIRVVET
As to B1, the binding result in experiment [1] is “binds”.

B2: GFP-TUFT1 (protein, UniProt Q9NNX1-1 1-390)
chain: B1 chain with A29T, A70S
On to B2, for which, in experiment [2], the binding entry is “binds”.

B3: 3×FLAG-TUFT1 C-terminus (151–390 aa) (domain or fragment, UniProt Q9NNX1-1 151-390)
chain: PTALYSSPPEVDTCINEDVESLRKTVQDLLAKLQEAKRQHQSDCVAFEVTLSRYQREAEQSNVALQREEDRVEQKEAEVGELQRRLLGMETEHQALLAKVREGEVALEELRSNNADCQAEREKAATLEKEVAGLREKIHHLDDMLKSQQRKVRQMIEQLQNSKAVIQSKDATIQELKEKIAYLEAENLEMHDRMEHLIEKQISHGNFSTQARAKTENPGSIRISKPPSPKPMPVIRVVET
For B3, in experiment [3], the binding result is “binds”.

B4: 3×FLAG-TUFT1 N-terminus (1–150 aa) (domain or fragment, UniProt Q9NNX1-1 1-150)
chain: MNGTRNWCTLVDVHPEDQAAGSVDILRLTLQGELTGDELEHIAQKAGRKTYAMVSSHSAGHSLASELVESHDGHEEIIKVYLKGRSGDKMIHEKNINQLKSEVQYIQEARNCLQKLREDISSKLDRNLGDSLHRQEIQVVLEKPNGFSQS
For the molecule B4, the binding entry in experiment [1] is reported as “binds”.
